PubChem BioAssay AID493208 (National Center for Advancing Translational Sciences (NCATS), 2011)
Out of some 44,000 compounds screened, about 340 (0.77%) were called active. Roughly 5% stayed inconclusive and do not appear here. Calls come from the whole dose curve; as a rule, active = well fitted inhibition curve with a large enough effect; inconclusive = small, poorly fitted or top-dose-only effect; inactive = flat fitted curve, though single readings scatter. The list shows a part of the results.

Assay: Acumen qHTS Assay for Inhibitors of the mTORC1 Signaling Pathway in MEF (Tsc2-/-, p53-/-) Cells: Sytravon;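 note: plate controls were DMSO for no effect and rapamycin for full effect; nearly all actives have a fitted effect of over 50% in size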
Conditions: phospho-rpS6 immunofluorescence/PI, 24 h; series mostly up to 38.3 µM; activity change, negative = inhibition: at the top concentration
Procedure, shortened: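 Read-out: phospho-S6 Alexa-488 intensity over PI intensity per well, scored as % active cells using thresholds from rapamycin (7.5 nM) and DMSO controls. Tsc2-/-, p53-/- MEFs exposed to compound for 24 h; PI cell count recorded as viability.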

Row | SMILES | activity change, negative = inhibition
1 | COc1cccc(NCc2cccn2-c2nnc(N3CCC(C)CC3)s2)c1 | inactive: 0%
2 | COc1ccc(NC(=O)C2CCC(CNS(=O)(=O)c3cccc4nsnc34)CC2)cc1OC (stereo not drawn) | inactive: -0.112%
3 | CCCOC(=O)c1cccc(Nc2nc(CCC)cc(=O)[nH]2)c1 | inactive: -2.52%
4 | CCOC(=O)Cn1c(=N)n(Cc2ccc(C(C)(C)C)cc2)c2ccccc21 | inactive: 16.5%
5 | COc1ccc(C(=O)n2nc(N)c3cc4ccc(C)cc4nc32)cc1OC | inactive: -0.727%
6 | COCCNC(=O)CCCn1c(SCC(=O)Nc2ccc(F)cc2)nc2c(sc3ccccc32)c1=O | inactive: -2.75%
7 | Cc1nc2cc(-c3ccccc3)nn2c(C)c1CCC(=O)N1CCN(c2ccc(F)cc2)CC1 | inactive: -11.7%
8 | COC(=O)c1cc2oc(C)cc2n1Cc1ccccc1Cl | inactive: -16.8%
9 | COc1ccccc1C1NC(=O)c2n[nH]c(-c3cccs3)c21 (stereo not drawn) | inactive: -11.9%
10 | CC1CCN(C(=O)c2c(NC(=O)c3ccccc3Cl)sc3c2CCC(C(C)(C)C)C3)CC1 (stereo not drawn) | inactive: 3.8%
11 | Cc1cc2nc(-c3ccc(OCc4ccccc4C)cc3)cc(C(F)(F)F)n2n1 | inactive: 2.48%
12 | COc1cc(C2CC(=O)N(Cc3cccc(F)c3)c3ccccc3S2)cc(OC)c1OC (stereo not drawn) | inactive: 4.55%
13 | Cc1cc(C)cc(-n2ccnc2SCC(=O)Nc2cccc3ccccc23)c1 | inactive: -10.2%
14 | CNC(=O)C1CCC(Cn2c(=O)c3sccc3n(Cc3cc(C)ccc3C)c2=O)CC1 (stereo not drawn) | inactive: -8.9%
15 | Cc1ccccc1-c1nc(CN2CCCC(C(=O)NCc3ccc(Cl)cc3)C2)c(C)o1 (stereo not drawn) | inactive: 2.82%
16 | COc1ccc(N2C(=O)NC(NS(=O)(=O)c3ccc(Cl)cc3)(C(F)(F)F)C2=O)cc1 (stereo not drawn) | inactive: 0.707%
17 | CCc1ccc(S(=O)(=O)c2cn(CC(=O)Nc3ccc(F)c(Cl)c3)c3ccccc3c2=O)cc1 | inactive: 1.12%
18 | CCN(C(=O)Cn1c(C(=O)OC)cc2sc(Cl)cc21)c1cccc(C)c1 | inactive: -0.634%
19 | COc1ccc([N+](=O)[O-])cc1NC(c1nnc(-c2ccccc2)o1)c1ccccc1F (stereo not drawn) | inactive: -23.4%
20 | CSc1nc(NCCOC(C)=O)c(C#N)c(-c2ccc(C(C)(C)C)cc2)n1 | inactive: -4.59%
21 | COc1ccc(C2C(=O)N(C3CCCCC3)CC(=O)N2CCc2ccc(C)cc2)cc1OC (stereo not drawn) | inactive: -1.86%
22 | Cc1ccc2nc(CN3CCN(C(=O)Nc4ccc(F)cc4)CC3)oc2c1 | inactive: 0%
23 | COc1ccc(NC(=O)CCc2c(C)nc3c(c2C)c(=O)n(C)c(=O)n3C)c(OC)c1 | inactive: -3.38%
24 | CCc1ccccc1NC(=O)Cn1nc2c3cc(F)ccc3n(Cc3cccc(C)c3)cc-2c1=O | inactive: -4.34%

Row | SMILES | activity change, negative = inhibition
25 | O=C(COc1ccccc1F)Nc1ccc2nc(SCC(=O)N3CCc4ccccc43)sc2c1 | inactive: -1.83%
26 | CCOC(=O)c1c(NC(=O)c2cc(-c3ccccc3OC)on2)sc(C)c1C | inactive: -0.243%
27 | CCOc1ccc(-c2cn3c(n2)sc2cc(C(=O)NCCCN4CCCCCC4)ccc23)cc1 | inactive: 3.16%
28 | CCc1ccc2oc(C(=O)NCC(c3ccc(OC)cc3)N3CCCCC3)c(C)c2c1 (stereo not drawn) | inactive: 1.78%
29 | CC1=C(C(=O)Nc2cccnc2)C(c2ccc(F)cc2)n2nc(-c3cccc(C)c3)nc2N1 (stereo not drawn) | inactive: -18.1%
30 | Cc1cc(NC(=O)C2CCN(S(=O)(=O)c3c(C)noc3C)CC2)ccc1Br | inactive: -20%
31 | Cc1cc(C)c2nc(N(Cc3cccnc3)C(=O)CCS(=O)(=O)c3ccccc3)sc2c1 | inactive: -1.79%
32 | COc1ccc(-c2nc3nc(C)cc(C)n3c2Nc2c(C)cccc2C)cc1 | inactive: -9.06%
33 | COc1ccccc1CNC(=O)C1(c2cccs2)CCOCC1 | inactive: 2.2%
34 | N#Cc1c[nH]n2c(NC3CCCCC3)c(-c3ccc(F)cc3)nc12 | inactive: 1.59%
35 | Cc1cccc(-n2ccnc2SCC(=O)Nc2cccc3ccccc23)c1 | inactive: 2.38%
36 | Cc1cc(C)cc(OCCSc2nc3ccc(NC(=O)c4ccc5c(c4)OCO5)cc3s2)c1 | inactive: 0.997%
37 | CCc1ccc2[nH]cc(S(=O)(=O)c3ccc(C(C)C)cc3)c(=O)c2c1 | inactive: -12.3%
38 | O=C(COc1ccccc1Cl)Nc1ccc(OCc2cc(=O)n3ccsc3n2)cc1 | inactive: 3.26%
39 | COc1cccc(Nc2nc3cc(C)ccc3nc2NS(=O)(=O)c2ccc(Cl)cc2)c1 | inactive: -0.805%
40 | COC(=O)c1ccccc1NC(=O)Cn1cnc2sc(C)c(S(=O)(=O)N3CCC(C)CC3)c2c1=O | inactive: 1.17%
41 | Cc1nc2ccccn2c(=O)c1NC(=O)c1cccc(F)c1 | inactive: -7.63%
42 | CCOc1ccc(C2C(=O)N(C3CCCCCC3)CC(=O)N2Cc2ccccc2)cc1OC (stereo not drawn) | inactive: 0.749%
43 | COc1ccc(NC(=O)/C=C\C(=O)N(c2ccc(C(C)C)cc2)C(C(=O)NCc2ccco2)c2ccc(C)cc2)cc1 (stereo not drawn) | inactive: -9.01%
44 | CCOC(=O)c1cccc(NC(=O)c2ncoc2-c2ccco2)c1 | inactive: 10.7%
45 | Cc1ccccc1N(C)S(=O)(=O)c1nnc(NC(=O)c2ccco2)s1 | inactive: 2.53%
46 | CCOC(=O)c1cc(-c2ccc(OC)cc2)n(CCC(=O)NCCc2ccccc2)c1C | inactive: -2.87%
47 | COc1cccc(C(=O)NCCc2csc3nc(-c4ccccc4F)nn23)c1OC | inactive: -1.98%
48 | Cc1ccc(NC(=O)C2(C)Cc3ccccc3C(=O)O2)c(C)c1 (stereo not drawn) | inactive: 2.16%
